According to PMC4336329 (PLoS ONE, 2015):
Among all 310,000 compounds or so, about 14,000 (4.5%) showed an effect of 50% or more. Effects have a minus sign here. Some of the results follow.

molecular target: human ether-à-go-go-related gene (hERG) potassium channel (human, UniProt Q12809); test: primary screen, population patch clamp on CHO cells stably expressing hERG
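Further: peak tail current of the secondary pulse compared with the same well before compound.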

human ether-à-go-go-related gene (hERG) potassium channel, sequence (Q12809 whole entry, looked up): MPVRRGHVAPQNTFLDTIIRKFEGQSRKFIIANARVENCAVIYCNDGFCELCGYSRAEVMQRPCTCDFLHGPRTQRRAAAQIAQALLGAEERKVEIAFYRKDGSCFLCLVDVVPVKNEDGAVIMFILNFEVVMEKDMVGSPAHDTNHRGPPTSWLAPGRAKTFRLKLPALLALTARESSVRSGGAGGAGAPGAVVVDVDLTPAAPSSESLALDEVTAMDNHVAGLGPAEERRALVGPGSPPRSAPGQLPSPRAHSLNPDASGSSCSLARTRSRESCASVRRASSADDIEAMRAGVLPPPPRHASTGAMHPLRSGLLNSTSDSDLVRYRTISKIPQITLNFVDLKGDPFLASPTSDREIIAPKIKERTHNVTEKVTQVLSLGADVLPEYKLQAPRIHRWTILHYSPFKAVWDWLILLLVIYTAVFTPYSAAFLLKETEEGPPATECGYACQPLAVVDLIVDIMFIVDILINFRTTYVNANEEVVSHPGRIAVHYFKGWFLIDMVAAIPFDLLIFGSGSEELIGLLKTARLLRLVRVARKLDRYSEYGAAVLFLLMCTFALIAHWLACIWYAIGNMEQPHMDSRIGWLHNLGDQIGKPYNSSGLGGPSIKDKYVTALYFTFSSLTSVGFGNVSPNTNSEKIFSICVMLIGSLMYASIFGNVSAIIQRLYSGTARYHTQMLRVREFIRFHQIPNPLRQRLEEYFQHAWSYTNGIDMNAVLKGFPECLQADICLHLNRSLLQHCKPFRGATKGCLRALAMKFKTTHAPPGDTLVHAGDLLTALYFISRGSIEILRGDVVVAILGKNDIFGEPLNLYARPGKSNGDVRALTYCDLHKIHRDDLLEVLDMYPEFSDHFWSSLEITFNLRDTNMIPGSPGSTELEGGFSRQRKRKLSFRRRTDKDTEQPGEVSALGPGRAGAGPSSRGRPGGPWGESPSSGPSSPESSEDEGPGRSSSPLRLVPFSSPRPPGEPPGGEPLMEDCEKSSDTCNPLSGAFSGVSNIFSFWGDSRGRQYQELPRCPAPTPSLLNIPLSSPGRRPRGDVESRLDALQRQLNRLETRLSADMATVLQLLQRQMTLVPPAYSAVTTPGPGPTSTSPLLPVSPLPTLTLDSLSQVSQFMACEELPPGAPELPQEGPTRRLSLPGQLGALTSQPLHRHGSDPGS

Structure (SMILES)	hERG current change (%, negative = inhibition) at 10uM [%]
COc1ccc(CN2CCN(Cc3ccco3)CC2)cc1.O=C(O)C(=O)O	-4.45
CCCCn1c(O)c(C(C)=NCc2cc(OC)cc(OC)c2)c(=O)[nH]c1=O	-49.8
COc1ccc(C(=O)N=c2sc3ccccc3n2C)cc1	12.5
Cc1ccc(NS(=O)(=O)c2c(C)[nH]c(C)c2C(=O)N2CCCCC2)c(C)c1	7.76
COC(=O)c1sc(-c2ccc(Cl)cc2)cc1NC(=O)CSCC(=O)O	12.1
CCCCN(C(=O)CSCC(=O)Nc1ccc(C)cc1)c1c(N)n(CC(C)C)c(=O)[nH]c1=O	6.29
Cc1ccc(SC(c2ccc(C)cc2)C(Cn2cncn2)C(=O)c2ccccc2)cc1 (stereo not shown)	2.98
CCOC(=O)c1cnc2c(c(C)nn2C)c1Oc1ccc(OC)cc1	-1.99
COc1cc(C(C[N+](=O)[O-])c2c(C)[nH]c3ccccc23)cc(OC)c1OC (stereo not shown)	23.9
Cc1ccc(C)c(OCCC(=O)OCC(=O)c2c(N)n(C)c(=O)n(C)c2=O)c1	-55.5
COc1ccc2cc3cc(C(=O)NCCN4CCc5ccccc5C4)oc3nc2c1	-63.3
CCOc1ccc(C2NC(=S)NC3=C2CCc2ccccc23)cc1 (stereo not shown)	-45.6
COc1ccccc1N1CCN(C(C)C(=O)N2CC(C)OC(C)C2)CC1.O=C(O)C(=O)O (stereo not shown)	13.4
COC(=O)CSC1=NP(=S)(SCC(=O)OC)N2CCCC2=C1C#N (stereo not shown)	-12.4
CC(=O)Nc1ccc(NC(=O)COc2ccc(-c3ccccc3)cc2)cc1	9.64
CCC1CN(C(=O)N2CCC(C(=O)NCc3ccc(OC)cc3OC)CC2)c2ccccc2O1 (stereo not shown)	-2.32
CC1=C(C(=O)Nc2cccc(C(=O)NC(C)c3ccccc3)c2)SCCO1 (stereo not shown)	8.58
Cc1ccc(CNc2ccc(N3C(=O)CCCC3=O)cc2[N+](=O)[O-])cc1	-5.27
O=Cc1ccc2cccnc2n1	6.3
Cc1nnc2n(Cc3ccccc3)c(=O)c3c4c(sc3n12)COC(C(C)C)C4 (stereo not shown)	-4.44

Structure (SMILES)	hERG current change (%, negative = inhibition) at 10uM [%]
O=C(CSc1nnc(CNC(=O)c2cccs2)o1)Nc1cccc(Cl)c1	-7.94
COCCn1nnnc1C(c1ccc(OC)cc1)N1CCC(C)CC1 (stereo not shown)	12
CN(CC(=O)Nc1ccc(F)c(F)c1F)C(=O)C1CCC1	9.13
CCN(CC)CC(C)OC(=O)c1cc(OC)c(OC)c(OC)c1.Cl (stereo not shown)	-11.5
C[n+]1ccccc1Nc1cc([N+](=O)[O-])ccc1N.[I-]	2.5
COc1ccc2c(c1)CCCC2NS(=O)(=O)OCC(Cl)(Cl)Cl (stereo not shown)	8.39
O=C(N/N=C/c1cc(Br)ccc1O)c1ccncc1	5.92
CCN(CC)c1ccc(N2C(=NC(=O)C3CC3)SC3CS(=O)(=O)CC32)cc1 (stereo not shown)	5.74
CCOC(=O)C1CCN(Cc2ccc(O)c(OC)c2)CC1	-13.7
CC(C)C(=O)Nc1ccc(C(=O)NNC(=O)CCCOc2ccc(Cl)cc2Cl)cc1	24.1
CCCCNC(=S)NNC(=O)c1csc(C)c1	-7.71
CN(C(=O)c1cc2n(n1)C(C(F)(F)F)CC(c1ccco1)N2)c1ccc(OC(F)(F)F)cc1 (stereo not shown)	0.998
Cc1cc(C)c(NC(=O)CSc2nc(=O)n(CCN3CCOCC3)c3c2CCC3)c(C)c1	-34.6
Cc1ccc(OCCNC(=O)c2ccco2)cc1C	7.8
Cc1cc(OC(=O)c2ccccc2Br)cc(=O)n1C	-17.5
Cc1cc(=O)[nH]c(N/N=C/c2cccs2)n1	-3.8
COC(=O)c1cc(Br)c(=O)n(Cc2ccncc2)c1	-1.41
Cl.NC(Cc1ccccc1)Cc1ccccc1	-2.85
CCOC(=O)Cn1c(=O)oc2ccc(C)cc21	1.49
Cc1csc(=O)n1CCC(=O)OCC(=O)NCc1ccc(Cl)cc1Cl	0.351

Structure (SMILES)	hERG current change (%, negative = inhibition) at 10uM [%]
Cc1ccc2cc(CN(CCCN(C)C)C(=O)NCc3ccccc3)c(=O)[nH]c2c1C	-34.1
CCOC(=O)c1c(S(=O)(=O)NCCc2cccs2)c(C)n(C)c1C	-6.23
Nc1ccccc1SCc1ccccc1Cl	2.35
N#C/C(=C(/O)CSc1ccccn1)c1nc2ccccc2s1	11.8
O=C(NC(=S)Nc1ccccc1[N+](=O)[O-])c1ccco1	2.35
CC(=O)Nc1ccc(NC(=O)C(C)OC(=O)CCCOc2ccc(Cl)cc2C)cc1 (stereo not shown)	14.7
O=C(c1ccc([N+](=O)[O-])s1)N1CCN(c2ccccn2)CC1	-20.4
Cc1ccc(CSc2nc3ccccc3c(=O)n2C)cc1	28.6
Cc1nn(-c2ccccc2)c(Cl)c1C(=O)NNC(=O)c1ccccc1O	-2.09
COc1cc(/C=C/C(=O)OCC(=O)N2CCCCCC2)ccc1OCC#N	-10.6
Fc1ccc(N2N=C(c3cccs3)CC2c2ccco2)c(F)c1 (stereo not shown)	-3.53
CC(=O)c1cc2c(cc1NC(=O)c1cccc(S(=O)(=O)N3CCN(C)CC3)c1)OCO2	5.02
CCOc1cccc(NC(=O)/C(C#N)=C\c2cn(CC(=O)O)c3ccccc23)c1	7.55
C[n+]1cccc(CNC(=O)/C=N/O)c1.[I-]	17
C=CCNc1nc(N)c([N+](=O)[O-])c(NC2CCCCC2)n1	9.84
O=C(COC(=O)C1CC2CCCC(C1)C2=O)NC(=O)c1ccccc1 (stereo not shown)	1.03
Cc1cccc2c1cnn2C(=O)Nc1ccccc1Br	22.4
CC(C)CC(=O)NC(=S)Nc1ccccc1N1CCCC1	-2.16
